About 150 (0.041%) of roughly 370,000 compounds were called active. The inconclusive results got no clear call from the source; some entries with a clear call stand among them for comparison. Calls come from the whole dose curve; as a rule, active = well fitted inhibition curve with a large enough effect; inconclusive = small, poorly fitted or top-dose-only effect; inactive = flat fitted curve, though single readings scatter. No potency is given beside an inconclusive call; the fits are too rough.
Target: Beta-lactamase (Escherichia coli (strain K12)) (UniProt P00811)
Test: qHTS Inhibitors of AmpC Beta-Lactamase (assay with detergent); note: nearly all actives have a fitted effect of over 25% in size;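 for activity change, negative = inhibition: 0% = no-compound wells and -100% = no-enzyme wells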
Settings: AmpC hydrolysis of nitrocefin, absorbance 480 nm, 0.01% Triton; activity change, negative = inhibition: at 114 µM (top of the series)
Method in brief: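 20 mM phosphate pH 7.0 + 0.01% (detergent screen) or 0.0001% Triton X-100; 5.3 nM AmpC reagent; cpd preinc 15 min RT; nitrocefin (800 uM stock) to start; A480 q20 s × 4 min; Activity was normalised to no-enzyme and no-compound control wells.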
Potency is the fitted concentration of half-maximal effect; tags give direction and shape of the fitted curve.

UniProt P00811, sequence (P00811 whole entry, looked up): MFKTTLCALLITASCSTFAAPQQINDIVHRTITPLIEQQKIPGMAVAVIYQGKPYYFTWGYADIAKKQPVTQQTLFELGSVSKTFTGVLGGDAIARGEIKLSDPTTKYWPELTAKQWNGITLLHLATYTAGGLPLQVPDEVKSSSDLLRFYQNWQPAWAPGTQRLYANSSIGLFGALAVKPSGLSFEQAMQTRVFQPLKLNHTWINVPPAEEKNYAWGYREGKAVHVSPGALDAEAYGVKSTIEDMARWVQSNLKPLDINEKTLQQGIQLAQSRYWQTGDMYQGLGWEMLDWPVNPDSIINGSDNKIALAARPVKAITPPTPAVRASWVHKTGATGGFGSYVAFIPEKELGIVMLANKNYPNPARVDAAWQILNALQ

| Structure (SMILES) | Potency | activity change, negative = inhibition |
| --- | --- | --- |
| CN(c1ccccc1C(=O)N1CCN(Cc2ccc3c(c2)OCO3)CC1)S(C)(=O)=O | inconclusive [inhibitor, partial curve, poor fit] |  |
| COCCCN(C(=O)CCSc1ccc(F)cc1)c1c(N)n(Cc2ccccc2)c(=O)[nH]c1=O | inconclusive [inhibitor, full curve, poor fit] |  |
| CCCCn1c(=N)c(S(=O)(=O)c2ccc(Cl)cc2)cc2c(=O)n3cccc(C)c3nc21 |  | inactive: 11.9% |
| N#Cc1cc2ccccc2nc1SCc1cccnc1 | inconclusive [inhibitor, full curve, poor fit] |  |
| Cc1c(Cl)cccc1NC(=O)Cn1cc(C(=O)C2CCCCC2)c2ccccc21 |  | inactive: 19.9% |
| COc1ccc(C(=O)NCC(=O)N/N=C/C(C)=C/c2ccccc2)cc1OC | inconclusive [inhibitor, full curve, poor fit] |  |
| CCSc1ncc(Cl)c(C(=O)Nc2ccc(S(=O)(=O)N3CCC(C)CC3)cc2)n1 |  | inactive: 13.9% |
| Cc1cc(C)n(CC(=O)NNC(=O)CCNC(=O)c2ccccc2Cl)n1 | inconclusive [inhibitor, full curve, poor fit] |  |
| CCOc1ccccc1NC(=O)C1C2C=CC(O2)C1C(=O)O (stereo not drawn) | inconclusive [inhibitor, full curve, poor fit] |  |
| Cc1ncc(CSc2nnnn2-c2ccccc2)c(N)n1 | inconclusive [inhibitor, full curve, poor fit] |  |
| O=C(Nc1nccs1)c1ccc(NC(=O)C2CC=CCC2C(=O)O)cc1 (stereo not drawn) | inconclusive [inhibitor, single point] |  |
| COc1ccc([N+](=O)[O-])cc1-c1[nH]c(-c2ccc(C(=O)O)cc2)nc1-c1ccccc1 | inconclusive [inhibitor, partial curve, poor fit] |  |
| O=C1NC(=O)N(Cc2ccc(F)cc2)C(=O)/C1=C\c1ccc(N2CCCC2)cc1 |  | inactive: -1.36% |
| CC(=O)c1ccc(-c2nc3ccccc3n2C)o1 | inconclusive [inhibitor, single point] |  |
| Cc1ccc(NC(=O)CSC2=Nc3ccccc3C3=NC(Cc4ccccc4)C(=O)N23)cc1C (stereo not drawn) |  | inactive: -0.7% |
| CCN(Cc1ccccc1)C(=O)c1cc2c(OC)c(OC)c(OC)cc2[nH]1 | inconclusive [inhibitor, partial curve, poor fit] |  |
| Cc1cccc(C(=O)OCN2C(=O)c3ccccc3C2=O)c1[N+](=O)[O-] |  | inactive: 2.66% |
| COc1ccccc1-c1c(C)nn2c(NCCN3CCCC3)cc(C)nc12 | inconclusive [inhibitor, full curve, poor fit] |  |
| CCOC(=O)c1cc2sccc2n1CC(=O)N1CCCc2ccccc21 | inconclusive [inhibitor, full curve] |  |
| O=C(Nc1cc(S(=O)(=O)N2CCOCC2)ccc1N1CCCC1)C1CC1 |  | inactive: -0.384% |
| COc1ccc(C(=O)NC(=S)Nc2ccc3oc(=O)ccc3c2)cc1OC |  | inactive: -20.2% |
| Cc1sc2nc(CN3CCN(c4ccc(O)cc4)CC3)[nH]c(=O)c2c1C |  | inactive: 4.56% |
| C(=C\c1ccccc1)/C=N/Nc1nncc(-c2ccccc2)n1 |  | inactive: -2.46% |

| Structure (SMILES) | Potency | activity change, negative = inhibition |
| --- | --- | --- |
| Cc1ccc(C(=O)Nc2ccccc2C(=O)O)cc1S(=O)(=O)Nc1ccccc1 | inconclusive [inhibitor, full curve, poor fit] |  |
| CN1CCC2(CC1)NC(=O)NC2=O | inconclusive [inhibitor, partial curve, poor fit] |  |
| Cc1nn(C)c(C)c1NC(=O)CSc1nnc(C)n1-c1ccccc1 | inconclusive [inhibitor, partial curve, poor fit] |  |
| CC1Sc2ccc(C(=O)Nc3ccccc3OC(F)F)cc2NC1=O (stereo not drawn) | inconclusive [inhibitor, full curve, poor fit] |  |
| O=C(CNC(=O)C1CCCCC1)Nc1cc(Cl)cc(Cl)c1 |  | inactive: 0.811% |
| CC(Oc1ccc(Br)cc1)C(=O)Nc1cc(S(=O)(=O)N2CCOCC2)ccc1N1CCCC1 (stereo not drawn) | inconclusive [inhibitor, full curve, poor fit] |  |
| CCOC(=O)Cn1c(=O)cc(C)c2ccccc21 |  | inactive: 1.62% |
| O=C(NCc1ccc2c(c1)OCO2)c1cc2ccccc2oc1=O | inconclusive [inhibitor, full curve, poor fit] |  |
| Cc1ccc(S(=O)(=O)N2Cc3ccccc3CC2C(=O)Nn2cnnc2)cc1 (stereo not drawn) | inconclusive [inhibitor, full curve] |  |
| CCOC(=O)N1CCN(c2cc3[nH]c(=S)[nH]c3cc2F)CC1 | inconclusive [inhibitor, full curve, poor fit] |  |
| CCOC(=O)c1[nH]c(C)c(C(=O)NC2CCCC2)c1C | inconclusive [inhibitor, partial curve, poor fit] |  |
| CCOC(=O)c1nnn(-c2nonc2N)c1COc1c(C=O)cccc1OC | inconclusive [inhibitor, full curve, poor fit] |  |
| Cc1ccccc1OCC(=O)OCC(=O)c1ccc(OC(=O)c2ccccc2)cc1 |  | inactive: -0.0429% |
| COC(=O)COc1ccc(S(=O)(=O)NCC2CCCO2)cc1Cl (stereo not drawn) |  | inactive: -0.0679% |
| Cc1nn(CC(=O)NCc2ccc(C(=O)O)cc2)c(C)c1[N+](=O)[O-] | inconclusive [inhibitor, single point] |  |
| COc1ccccc1Nc1nc(N2CCOCC2)nc(N2CCOCC2)n1 |  | inactive: -4.13% |
| O=C(O)CN1C(=O)/C(=C/C=C/c2ccccc2)SC1=S | inconclusive [inhibitor, partial curve] |  |
| COc1ccc(/C=N/Nc2nc3ccccc3o2)cc1O | inconclusive [inhibitor, full curve, poor fit] |  |
| CCCc1cc(=O)n2[nH]c(NCc3ccc(OC)c(OC)c3)nc2n1 | inconclusive [inhibitor, full curve, poor fit] |  |
| O=c1n(Cc2ccc(F)cc2)nc2n1-c1ccccc1SC2 |  | inactive: -3.61% |
| O=c1[nH]c(N2CCN(c3ccccc3)CC2)nc2c1CCCC2 | inconclusive [inhibitor, full curve, poor fit] |  |
| COc1ccc2cc(C#N)c(SCC(=O)N3CCCC3)nc2c1 | inconclusive [inhibitor, full curve] |  |
| CCNc1ccc(C(=O)OCC(=O)NCc2ccccc2Cl)cc1[N+](=O)[O-] |  | inactive: 2.96% |

| Structure (SMILES) | Potency | activity change, negative = inhibition |
| --- | --- | --- |
| Cc1ccc(NC(=O)CCC(=O)NNC(=O)COc2ccccc2)c(C)c1 | inconclusive [inhibitor, partial curve, poor fit] |  |
| CCOc1ccc(C2C(C(=O)OC)=C(C)N=C3SCCC(=O)N32)cc1OCC (stereo not drawn) | inconclusive [inhibitor, full curve] |  |
| O=C(c1cc(-c2ccccc2)n[nH]1)N1CCN(S(=O)(=O)c2ccccc2)CC1 | inconclusive [inhibitor, partial curve, poor fit] |  |
| CCOC(=O)C1CCCN(S(=O)(=O)c2cc3c4c(c2)CCC(=O)N4CCC3)C1 (stereo not drawn) | inconclusive [inhibitor, single point] |  |
| Cc1nn(C)c(C(=O)Nc2ccc(S(=O)(=O)NC34CC5CC(CC(C5)C3)C4)cc2)c1Br |  | inactive: -8.92% |
| COc1cc(-c2nnc(Cn3cc(C(F)(F)F)ccc3=O)o2)cc(OC)c1OC | inconclusive [inhibitor, single point] |  |
| OC[C@H]1OC(O)[C@H](O)[C@@H]1O (stereo partly drawn) | inconclusive [inhibitor, full curve, poor fit] |  |
| CCN(CC)CCCN(Cc1cc2cc3c(cc2[nH]c1=O)OCO3)C(=S)NCCCN(C)C | inconclusive [inhibitor, full curve, poor fit] |  |
| CCS(=O)(=O)N1CCN(C(=O)c2cccnc2)CC1 | inconclusive [inhibitor, full curve] |  |
| Cn1c(=O)c2cc3ccccc3nc2n(C)c1=O | inconclusive [inhibitor, full curve, poor fit] |  |
| O=C(N/N=C/c1ccncc1)c1ccccc1[N+](=O)[O-] | inconclusive [inhibitor, partial curve] |  |
| Cc1ccccc1N1OC2C(=O)N(c3ccc(F)cc3)C(=O)C2C1c1ccccn1 (stereo not drawn) | inconclusive [inhibitor, partial curve] |  |
| COc1ccccc1NC(=O)C1=C(C)Nc2nc(SCc3ccc(Cl)cc3)nn2C1c1ccccc1Cl (stereo not drawn) |  | inactive: 17.8% |
| CCn1c(SCC(=O)N/N=C(/C)c2ccncc2)nc2ccccc21 |  | inactive: 4.88% |
| COCc1n[nH]c(=S)n1-c1ccccc1 | inconclusive [inhibitor, full curve] |  |
| O=C(CSc1nnc(CNc2ccc(F)cc2)n1Cc1ccccc1)NCc1ccco1 |  | inactive: -17.3% |
| CCOc1ccccc1N1CCN(S(=O)(=O)CC)CC1 | inconclusive [inhibitor, partial curve, poor fit] |  |
| COc1ccc(Cn2nnnc2CN(Cc2cc3ccc(C)cc3[nH]c2=O)C2CCCC2)cc1 | inconclusive [inhibitor, single point] |  |
| COc1ccc(/C=N/NC(=O)CNC(=O)c2ccc(S(=O)(=O)N3CCOCC3)cc2)cc1OC | inconclusive [inhibitor, full curve] |  |
| CC(=O)c1cccc(NC(=O)Nc2ccc(C(=O)N3CCCC3)cc2)c1 |  | inactive: -7.08% |
| CCCN(C(=S)Nc1ccccc1)C1CCS(=O)(=O)C1 (stereo not drawn) |  | inactive: -0.963% |
| COc1ccc(CCn2c(C3CCCCC3)nc3c(c(=O)c4ccccc4n3C)c2=O)cc1OC |  | inactive: 4.42% |

Source: PubChem BioAssay AID485294 (National Center for Advancing Translational Sciences (NCATS), 2010)
